Test results published in article PMC4336329 (PLoS ONE, 2015).
The whole screen tested about 310,000 compounds, of which about 14,000 (4.5%) showed an effect of 50% or more. The effect is printed as a negative number. Some of the results follow.

What follows are molecules tested against human ether-à-go-go-related gene (hERG) potassium channel (human, UniProt Q12809) (assay: primary screen, population patch clamp on CHO cells stably expressing hERG).
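Further: peak tail current of the secondary pulse compared with the same well before compound.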

Sequence of human ether-à-go-go-related gene (hERG) potassium channel (Q12809 whole entry, looked up): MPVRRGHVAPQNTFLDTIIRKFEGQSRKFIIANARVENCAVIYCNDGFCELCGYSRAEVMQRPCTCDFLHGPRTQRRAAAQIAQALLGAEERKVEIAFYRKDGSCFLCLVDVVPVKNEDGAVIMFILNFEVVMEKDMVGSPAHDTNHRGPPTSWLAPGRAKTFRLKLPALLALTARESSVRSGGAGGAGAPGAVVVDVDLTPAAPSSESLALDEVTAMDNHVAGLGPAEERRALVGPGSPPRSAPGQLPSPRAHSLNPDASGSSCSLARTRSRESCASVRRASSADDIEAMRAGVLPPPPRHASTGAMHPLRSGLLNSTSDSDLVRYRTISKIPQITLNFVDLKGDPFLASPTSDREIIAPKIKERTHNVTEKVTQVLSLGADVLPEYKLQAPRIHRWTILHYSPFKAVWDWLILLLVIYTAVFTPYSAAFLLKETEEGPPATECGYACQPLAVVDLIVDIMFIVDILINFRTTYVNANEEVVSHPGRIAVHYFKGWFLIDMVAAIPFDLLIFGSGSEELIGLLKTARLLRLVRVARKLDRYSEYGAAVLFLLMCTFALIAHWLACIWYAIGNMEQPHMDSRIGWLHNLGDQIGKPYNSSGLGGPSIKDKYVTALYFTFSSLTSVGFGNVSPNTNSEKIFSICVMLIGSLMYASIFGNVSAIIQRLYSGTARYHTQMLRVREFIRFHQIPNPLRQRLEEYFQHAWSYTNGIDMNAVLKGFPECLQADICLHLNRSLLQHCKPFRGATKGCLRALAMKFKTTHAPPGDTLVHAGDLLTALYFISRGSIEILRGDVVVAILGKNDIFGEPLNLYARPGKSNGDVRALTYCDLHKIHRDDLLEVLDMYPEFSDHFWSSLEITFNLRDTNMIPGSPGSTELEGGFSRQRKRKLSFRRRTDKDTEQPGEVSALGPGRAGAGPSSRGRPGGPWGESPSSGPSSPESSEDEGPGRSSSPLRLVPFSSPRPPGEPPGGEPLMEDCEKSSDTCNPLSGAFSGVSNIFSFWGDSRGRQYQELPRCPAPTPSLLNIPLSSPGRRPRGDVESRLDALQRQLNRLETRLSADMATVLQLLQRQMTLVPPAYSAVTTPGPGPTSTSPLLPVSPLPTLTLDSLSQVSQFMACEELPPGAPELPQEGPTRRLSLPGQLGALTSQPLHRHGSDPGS

SMILES | hERG current change (%, negative = inhibition) at 10uM [%]
COc1ccc(CNC(=O)C/C(C)=N/NC(=O)Cc2ccc(OC)c(OC)c2)cc1 | 2.57
CC(C)[C@H](NC(=O)c1ccc(Cl)c([N+](=O)[O-])c1)C(=O)NCc1ccc(Cl)cc1Cl | 5.09
CCOC(=O)Cc1nn2c(=O)cc(C)nc2s1 | 10.7
COc1ccc(-c2nnc(OCc3nc4ccccc4n3C)c3ccccc23)cc1 | -40.2
CC(=O)Nc1ccc(Oc2ncccn2)c(Cl)c1 | -2.38
COc1ccc(-n2nc(C(=O)NCC(=O)NC(C)C)c3ccccc3c2=O)c(OC)c1 | 11.3
O=C(Nc1ccc(Br)cc1)Nc1ccccc1F | 7.6
Cc1ccc(NC(=O)[C@H](Cc2ccccc2)NC(=O)[C@@H]2Cc3ccccc3CN2)c(C)c1 | -5.23
Cc1cc(N2CCC(C)CC2)nc2ccc(N3C(=O)CCC3=O)cc12 | 2.53
COCCN(C(=O)COC(=O)c1cc2ccccc2cc1OC)c1c(N)n(Cc2ccccc2)c(=O)[nH]c1=O | 2.21
CC(NCc1nc2ccccc2n1C)C12CC3CC(CC(C3)C1)C2 (stereo not drawn) | -16.3
Cc1ccc(C2CC(=O)c3cnn(-c4nc(C)cc(C)n4)c3C2)cc1 (stereo not drawn) | -20.2
CCC(CO)n1c(SCc2cc(=O)oc3cc(C)ccc23)nc2ccccc2c1=O (stereo not drawn) | 2.16
CCCc1nc(SCC(=O)Nc2ccc(N3CCOCC3)cc2)c2ccccc2n1 | -9.11
Cc1cc(CCC(=O)O)c(C)cc1CCC(=O)O | 6.33
O=C(CSc1ccc2nnc(-c3ccncc3)n2n1)NCc1ccco1 | -25.8
COc1ccc(Cl)cc1NC(=O)NCc1ccco1 | -0.66
O=c1[nH]c2ccsc2c(=O)n1CCO | 9.81
CC1CCCCN1Cc1cccnc1.O=C(O)C(=O)O (stereo not drawn) | 33
Cc1nnc(SCc2nnc(-c3cccs3)o2)n1C | 1.31
COc1ccc(C(=O)Nc2ccc(C(F)(F)F)n(C)c2=O)cc1 | -19.5
C#CCCCCCCC#CCN(C)C.CC(=O)O | 4.19
Cc1c(-c2ccncc2)oc2ccc(Br)cc2c1=O | -41.2

SMILES | hERG current change (%, negative = inhibition) at 10uM [%]
COc1ccc(/C=N/NC(=O)Cc2csc(Nc3cccc(C(F)(F)F)c3)n2)c(OC)c1 | 2.17
CN(C(=O)c1ccc(N2CCOCC2)c([N+](=O)[O-])c1)C1CCCCC1 | -4.07
CC(C)(C)C(=O)N1CCC[C@@]1(CO)C(=O)O | 5.07
O=C(CSc1nnc(-c2cc(-c3cccs3)nc3ccccc23)o1)NC1CCCCC1 | 7.67
Cn1cnnc1SCC(=O)Nc1nc(-c2ccccc2)cs1 | -4.33
Cc1cccc(NC(=O)CN2CCN(C(=O)C(C)Oc3ccc(C#N)cc3)CC2)c1C (stereo not drawn) | -76.9
CC(=O)Nc1nc(-c2ccc3c(c2)CCN3S(C)(=O)=O)cs1 | 2.07
Cc1noc(C)c1COC(=O)Cc1ccc(Cl)cc1 | -5.13
COc1cccc(/C=C/C(=O)OCC(=O)N2CCN(S(=O)(=O)c3ccc(Cl)cc3)CC2)c1 | 17.9
O=C(CSc1ccccn1)N1CCc2ccccc21 | 8.86
CC(C)CNC(=O)c1ccc2c(c1)C(=O)N(C1CCCCC1)C2=O | -0.062
CCOc1ccc(-c2c(C(=O)N/N=C/c3cccs3)nnn2-c2nonc2N)cc1 | 2.22
Cc1cc(C(=O)OCC(=O)NCc2ccco2)c(C)o1 | -10.7
CC(=O)N1CC(=O)N(OCc2ccccc2)C1c1ccc(Cl)cc1Cl (stereo not drawn) | -6.23
CC1(C)CC(=O)/C(=N/Nc2ccc(Cl)cc2)CO1 | 6.07
Cc1nnc2sc(SCC(=O)N3CCCCC3)nn2c1=O | 5.28
CCN(CC)CCCNC(=O)C1c2ccccc2Oc2ccccc21 | 7.86
CSCCNCc1c(C(=O)N2CCOCC2)nc2c(C)cccn12 | 7.33
CC(C)NC(=O)c1onc(CSc2ccc(F)c(F)c2)c1C(=O)NC(C)C | -34
COc1ccc(NC(=S)N2CCN(c3ccccc3)CC2)c(OC)c1 | 7.83
CC(=O)c1cn(Cc2ccc(F)cc2)c2ccccc12 | -10.4
COc1ccccc1Nc1ncnc2nc[nH]c12 | 10.8
CN(CC(=O)Nc1ccccc1Cl)C(=O)C1CCN(C(=O)c2ccc(Cl)cc2)CC1 | -35.1

SMILES | hERG current change (%, negative = inhibition) at 10uM [%]
CC12CN3CC(C)(CN(C1)C3c1ccc(Br)cc1O)C2 (stereo not drawn) | -17.3
O=C(N/N=C/c1c[nH]c2ccccc12)c1cc(Cl)ccc1O | 8.24
CN(C)c1ccc(/C=C/C(=O)c2cccnc2)cc1 | -3.92
Cc1ccc2nc(-c3ccc(NC(=O)COC(=O)c4ccco4)cc3)sc2c1 | 7.44
Cc1cnc(C(=O)OC(C)C(=O)NC2CCCc3ccccc32)cn1 (stereo not drawn) | -3.62
COc1ccc(-c2csc(NC(=O)c3ccc(OCC(=O)N4CCOCC4)c(OC)c3)n2)cc1 | -48
CCC(C)(C)NC(=O)C(c1sccc1C)N(Cc1ccco1)C(=O)c1csnn1 (stereo not drawn) | 3.82
CCOc1ccc(NC(=S)NS(=O)(=O)c2cc(Br)ccc2OCC)cc1 | 16.7
COC(=O)C[C@H]1c2cc(F)ccc2S(=O)(=O)N1C(C)C | 9.21
Cc1nn(C(C)C)c(C)c1[C@@H]1C[C@H]2CN(Cc3cccc(Cl)c3)C(=O)[C@]23CCCN13 | -29.2
COCCNc1nc(N)c([N+](=O)[O-])c(Nc2ccc(F)cc2)n1 | 19.6
FC(F)(F)COc1ccc(-n2ccnc2)nn1 | 5.77
Cc1sc2ncnc(N)c2c1C | 4.12
COc1cccc(CN(CC(=O)NC2CCCC2)C(=O)c2csnn2)c1 | 20
CC(=O)N/C(=C\c1ccccc1)C(=O)OCC(=O)NC1CCS(=O)(=O)C1 (stereo not drawn) | 0.657
Cc1cc(SCC(=O)c2ccccc2)nc(SCC(=O)c2ccccc2)n1 | 9.35
CN1CCC2(CC1)NC(=O)C1=C(CN(C)CC1)N2 | 17.7
CCOC(=O)N1CCN(CC(O)COc2ccc(CC)cc2)CC1.Cl (stereo not drawn) | -31.2
Cc1cccc(-c2nnc(SCC(=O)Nc3nc4c(s3)CCCC4)n2C)c1 | -37.3
Cc1ccc2c(n1)sc1c(N)ncnc12 | 21.2
Cc1ccc(S(=O)(=O)N2CCC(=O)N(C(COCc3ccc(Cl)cc3)C(C)C)CC2)cc1 (stereo not drawn) | -51.7
COCCN1CCN(Cc2nc(Cc3ccc(OC)c(OC)c3)no2)CC1 | 3.84
Cc1ccc(/C(N)=N/OC(=O)N2c3ccccc3Sc3ccccc32)cc1 | 4.81

SMILES | hERG current change (%, negative = inhibition) at 10uM [%]
COC(=O)C1=C(c2ccc3ccccc3c2)C[C@@H]2CC[C@H]1N2C(=O)NCCNC(C)=O | 12.5
C=CCNC(=O)CCCc1ccccc1 | 7.65
O=C(CS(=O)(=O)c1ccc(F)cc1)NCCS(=O)(=O)c1ccccc1 | 17.6
O=S(=O)(Nc1ccn(-c2ccccc2)n1)c1ccc(Br)cc1 | 12.4
COC(=O)c1ccc(N2CCN(C)CC2)c(NC(=O)c2sc3ccccc3c2Cl)c1 | 13.1
COc1ccc(CCNC(=O)COC(=O)c2ccccc2NCCO)cc1OC | 12.5
COc1cccc(NC(=S)N2CCn3c(nc4ccccc43)C2)c1 | -15.4
C=CCN1C(=O)/C(=C2/Sc3ccccc3N2CCCS(=O)(=O)O)SC1=S.c1ccncc1 | -1.91
C=C(C)CSc1cc(C)nc2c(-c3ccccc3)c(C)nn12 | -5.72
Cc1cnc(C(=O)Nc2nnc(SCc3c(Cl)cccc3Cl)s2)cn1 | -1.75
Cc1ccc(N(C(=O)CS(=O)CC(=O)Nc2ccc(F)cc2)C(C)C(=O)NC(C)(C)C)cc1 (stereo not drawn) | 13.4
Cc1ccc(-n2nnnc2SCC(=O)N2CCc3ccccc3C2)c(C)c1 | -16.9
Cc1c(/C=N/NC(=O)C2(O)c3ccccc3-c3ccccc32)cnn1C | 9.98
COc1ccc(CC2(CO)CCN(S(=O)(=O)c3c(C)nn(C)c3Cl)CC2)cc1 | 14.7
CCS(=O)(=O)N1CCN=C1SCc1ccc(F)cc1 | -1.6
COc1ccccc1C(=O)O/N=C(\N)c1ccccn1 | 16.1
COc1ccc(F)cc1S(=O)(=O)NCC(c1ccc2c(c1)OCO2)N1CCN(C)CC1 (stereo not drawn) | -45.6
CN1C(=O)C(O)(CC(=O)c2cccs2)c2ccccc21 (stereo not drawn) | 19.7
CCOC(=O)c1cc(C(=O)c2cc(Cl)ccc2O)coc1=N | -4.18
O=C(NCc1ccccc1Cl)C1CCN(S(=O)(=O)c2ccc(-n3cnnn3)cc2)CC1 | -27.3
Cc1cc(N2CCOCC2)ccc1/C=C1/SC(=O)NC1=O | 1.61
